Measurements: publication PMC5892938
Some of the results follow. At the low end of the ranking the order means little.

biological target: GST-SBP-SLBP (stem-loop binding protein) (UniProt Q14493); test: targeted RNA Bind-n-Seq; settings: RBNS binding buffer: 25 mM Tris pH 7.5, 150 mM KCl, 3 mM MgCl2, 0.1% Tween, 0.5 mg/mL BSA, 1 mM DTT; 27 nM protein, 750 pM RNA pool; temperature not stated; high values mean tight binding;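 also: DESeq read counts versus GST-SBP nonspecific binding control pulldown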

| Sequence | binding signal (log2 fold change) |
| --- | --- |
| GGUCACGUCUCAAUCAACUCUUUCUCCAGGGAAAGCCCUGGUAUUCUCAACAGCUCGCAGUCAAG | -0.0417 |
| GGUCACGUCUCAAUCAACUCCAAAGAGGGGGGGAAAACCCCUUUACCCUCCACUUCAACAGCUCGCAGUCAAG | -0.445 |
| GGUCACGUCUCAAUCAACUCUAUUUCCAGGGAAAACCCUGGCUUUUUCAACAGCUCGCAGUCAAG | -0.0771 |
| GGUCACGUCUCAAUCAACUCAUUUUCAGGAGUUUACUCCUGCUUUCUCAACAGCUCGCAGUCAAG | 0.119 |
| GGUCACGUCUCAAUCAACUCAUCCUCAGGAGUUUUCUCCUGCUUAUUCAACAGCUCGCAGUCAAG | 0.0348 |
| GGUCACGUCUCAAUCAACUCAUUUUCCAGGGAAACCCCUGGCAUUUUCAACAGCUCGCAGUCAAG | -0.139 |
| GGUCACGUCUCAAUCAACUCUUUCCCAGGAGUUUUCUCCUGUUUAUUCAACAGCUCGCAGUCAAG | 0.00119 |
| GGUCACGUCUCAAUCAACUCUAUCUCCAGGGAAAUCCCUGGCUAUCUCAACAGCUCGCAGUCAAG | -0.0333 |
| GGUCACGUCUCAAUCAACUCUUCCCCCAGGGAAACCCCUGGUAAUUUCAACAGCUCGCAGUCAAG | -0.0954 |
| GGUCACGUCUCAAUCAACUCUAGUCCCAGGGAAAACCCUGGUAAUUUCAACAGCUCGCAGUCAAG | -0.0556 |
| GGUCACGUCUCAAUCAACUCAAAAGAGGGGGGGAAAACCCCUUUACCCUCAUAUUCAACAGCUCGCAGUCAAG | 0.449 |
| GGUCACGUCUCAAUCAACUCAAUCUCAGGAGUUUCCUCCUGUUAAUUCAACAGCUCGCAGUCAAG | -0.0624 |
| GGUCACGUCUCAAUCAACUCUAUCCCAGGAGUUUCCUCCUGUAUUCUCAACAGCUCGCAGUCAAG | 0.159 |
| GGUCACGUCUCAAUCAACUCUUUCUCCAGGGAAAGCCCUGGUUAUUUCAACAGCUCGCAGUCAAG | -0.0896 |
| GGUCACGUCUCAAUCAACUCUUCUCCCAGGGAAAUCCCUGGCUUUCUCAACAGCUCGCAGUCAAG | 0.0813 |
| GGUCACGUCUCAAUCAACUCAUUUUCAGGAGUUUUCUCCUGUAUACUCAACAGCUCGCAGUCAAG | -0.00998 |
| GGUCACGUCUCAAUCAACUCUAGUCCAGGAGUUUCCUCCUGUUUUUUCAACAGCUCGCAGUCAAG | -0.159 |
| GGUCACGUCUCAAUCAACUCAUCUCCCAGGGAAAACCCUGGUUAAUUCAACAGCUCGCAGUCAAG | -0.0315 |
| GGUCACGUCUCAAUCAACUCAUCCCCCAGGGAAAACCCUGGUUAUUUCAACAGCUCGCAGUCAAG | -0.183 |
| GGUCACGUCUCAAUCAACUCAUCGCCAGGAGUUUUCUCCUGCUUUCUCAACAGCUCGCAGUCAAG | 0.12 |
| GGUCACGUCUCAAUCAACUCUUUUUCAGGAGUUUCCUCCUGCAUUUUCAACAGCUCGCAGUCAAG | -0.0817 |
| GGUCACGUCUCAAUCAACUCUACUUCAGGAGUUUCCUCCUGCUUUCUCAACAGCUCGCAGUCAAG | -0.0662 |
| GGUCACGUCUCAAUCAACUCAACUUCCAGGGAAAGCCCUGGUUUUUUCAACAGCUCGCAGUCAAG | -0.0931 |
| GGUCACGUCUCAAUCAACUCUCCUGAGGGGGGGAAAACCCCUUUACCCUCUUUAUCAACAGCUCGCAGUCAAG | -0.172 |

| Sequence | binding signal (log2 fold change) |
| --- | --- |
| GGUCACGUCUCAAUCAACUCAUUCUCCAGGGAAAGCCCUGGCAAUCUCAACAGCUCGCAGUCAAG | 0.00165 |
| GGUCACGUCUCAAUCAACUCUAUUCCCAGGGAAAUCCCUGGCUUACUCAACAGCUCGCAGUCAAG | 0.0785 |
| GGUCACGUCUCAAUCAACUCAUCGUCAGGAGUUUACUCCUGUAUACUCAACAGCUCGCAGUCAAG | 0.13 |
| GGUCACGUCUCAAUCAACUCUAACGAGGGGGGGAAAACCCCUUUACCCUCCAAAUCAACAGCUCGCAGUCAAG | -0.365 |
| GGUCACGUCUCAAUCAACUCUUUCCCAGGAGUUUUCUCCUGCAUUCUCAACAGCUCGCAGUCAAG | 0.123 |
| GGUCACGUCUCAAUCAACUCUACAGAGGGGGGGAAAACCCCUUUACCCUCAAUUUCAACAGCUCGCAGUCAAG | -0.282 |
| GGUCACGUCUCAAUCAACUCUAGUCCAGGAGUUUCCUCCUGUUAAUUCAACAGCUCGCAGUCAAG | 0.0611 |
| GGUCACGUCUCAAUCAACUCCCAAGAGGGGGGGAAAACCCCUUUACCCUCCGCAUCAACAGCUCGCAGUCAAG | 0.167 |
| GGUCACGUCUCAAUCAACUCAAUUCCAGGAGUUUUCUCCUGCAUAGUCAACAGCUCGCAGUCAAG | 0.0625 |
| GGUCACGUCUCAAUCAACUCUAUCUCAGGAGUUUUCUCCUGUUUUGUCAACAGCUCGCAGUCAAG | 0.105 |
| GGUCACGUCUCAAUCAACUCUUCCCCAGGAGUUUACUCCUGUUUUCUCAACAGCUCGCAGUCAAG | -0.0387 |
| GGUCACGUCUCAAUCAACUCUUUUCCCAGGGAAAUCCCUGGCUAUGUCAACAGCUCGCAGUCAAG | -0.0827 |
| GGUCACGUCUCAAUCAACUCCUAAGAGGGGGGGAAAACCCCUUUACCCUCAUCGUCAACAGCUCGCAGUCAAG | -0.12 |
| GGUCACGUCUCAAUCAACUCUAUCCCAGGAGUUUACUCCUGUAAUCUCAACAGCUCGCAGUCAAG | -0.0349 |
| GGUCACGUCUCAAUCAACUCAAUCCCAGGAGUUUGCUCCUGUAUUUUCAACAGCUCGCAGUCAAG | -0.146 |
| GGUCACGUCUCAAUCAACUCCUCCGAGGGGGGGAAAACCCCUUUACCCUCAUCUUCAACAGCUCGCAGUCAAG | -0.328 |
| GGUCACGUCUCAAUCAACUCUAUCCCAGGAGUUUACUCCUGCAAUUUCAACAGCUCGCAGUCAAG | -0.0338 |
| GGUCACGUCUCAAUCAACUCAACUCCCAGGGAAAGCCCUGGUUUUUUCAACAGCUCGCAGUCAAG | -0.328 |
| GGUCACGUCUCAAUCAACUCUUCUCCCAGGGAAAUCCCUGGCAUAUUCAACAGCUCGCAGUCAAG | -0.07 |
| GGUCACGUCUCAAUCAACUCUUUCUCCAGGGAAAACCCUGGUUAAUUCAACAGCUCGCAGUCAAG | -0.246 |
| GGUCACGUCUCAAUCAACUCUACUUCCAGGGAAAACCCUGGCAUUCUCAACAGCUCGCAGUCAAG | 0.031 |
| GGUCACGUCUCAAUCAACUCAUCGUCAGGAGUUUUCUCCUGUUAUUUCAACAGCUCGCAGUCAAG | 0.192 |
| GGUCACGUCUCAAUCAACUCUUCGUCAGGAGUUUUCUCCUGUUAUCUCAACAGCUCGCAGUCAAG | -0.0391 |
| GGUCACGUCUCAAUCAACUCAGUCCCCAGGGAAACCCCUGGCUUAUUCAACAGCUCGCAGUCAAG | 0.249 |
